In PubChem BioAssay AID463173 (ICCB-Longwood Screening Facility, Harvard Medical School, 2010):
Out of some 52,000 compounds screened, about 4,300 (8.3%) were called active. Rule as the data show it: active = survival mostly below about 52% (no sharp cut-off); inactive = mostly above about 56%. The list shows a part of the results.

What follows are molecules tested on DeltatarO mutant (assay: growth inhibition of S. aureus wild type versus tarO mutant, primary screen, teichoic acid synthesis inhibitors, RN4220, OD600 (AID 463173)). Settings: OD600, 18 h, hits give low values, screened at 18.75 µg/mL (by protocol).
With `CCC(C(=O)NCCc1ccc(Cl)cc1)n1nc(C)c2c(C)n(-c3ccccc3)nc2c1=O` (stereo not drawn) the survival was inactive: 115%. `O=C(Sc1cccc2cccnc12)N1CCOCC1` was tested, and the survival was inactive: 70%. For `Cc1ccc(S(=O)(=O)c2nnn3c2nc(Nc2ccc(C(C)C)cc2)c2sccc23)cc1C`, the survival was inactive: 32%. `CCOc1ccc(-n2c(SCc3nc(-c4ccccc4C)no3)nnc2-c2ccccc2)cc1` was tested, and the survival was inactive: 77%. With `CCC(=O)Nc1ccc2c(c1)N(C(C)=O)c1ccccc1CC2` the survival was inactive: 75%. In the case of `CC(C)Cc1nn2c(=O)cc(COC(=O)c3ccccc3NC(=O)c3ccccc3)nc2s1`, the survival is reported as inactive: 117%. For `CC(=O)Nc1ccc(NC(=O)CN2C(=O)CN(C)C(=O)c3ccccc32)cc1`, the survival was inactive: 86%. For `Cc1[nH]nc(CSSCc2n[nH]c(C)c2C(=O)NN)c1C(=O)NN`, the survival was inactive: 95%. `COCCCn1c(=N)c(C(=O)NC2CCCC2)cc2c(=O)n3ccccc3nc21` was tested, and the survival was inactive: 85%. With `Cc1ccc(-c2nc3c4cnn(-c5cc(Cl)ccc5Cl)c4ncn3n2)cc1` the survival was inactive: 69%. With `Cc1ccc(CCNC(=O)CCSCc2ccc(Cl)cc2)cc1` the survival was inactive: 82%. `CN(C)c1ccc(CN(CC2CCCO2)C(=O)COc2ccc(Cl)cc2)cc1` (stereo not drawn) was tested, and the survival was inactive: 59%. In the case of `CCc1ccc(-n2c(C)nc3cc(C(=O)NCCc4ccccc4)ccc32)cc1`, the survival is reported as inactive: 107%. For `COc1cccc(CN2C(=O)c3ccccc3C2C(=O)NCCc2ccc(OC)c(OC)c2)c1` (stereo not drawn), the survival was inactive: 83%. `COc1ccccc1NC(=O)CSc1ncc2c(n1)-c1cc(Cl)ccc1N(C)S2(=O)=O` was tested, and the survival was inactive: 98%. `CC(C)CC(=O)Nc1ccc(C(=O)OCc2cc(=O)n3nc(C4CCCCC4)sc3n2)cc1` was tested, and the survival was inactive: 55%. `Cc1nc(N2CCCC2)ncc1C(=O)Nc1ccccc1` was tested, and the survival was inactive: 99%. For `Cc1cc(O)c(C(c2cccc(Cl)c2)N2CCN(c3ccccc3)CC2)c(=O)n1Cc1ccco1` (stereo not drawn), the survival was inactive: 99%. `CC(=O)N1CCCc2cc(S(=O)(=O)N3CCCC(C(=O)NCc4ccc(Cl)cc4)C3)ccc21` (stereo not drawn) was tested, and the survival was inactive: 86%. With `CCCn1c(=O)c2sccc2n2c(CCCC(=O)NCCOC)nnc12` the survival was inactive: 86%. For `O=C(c1cccs1)N1CCN(C/C=C/c2ccccc2)CC1`, the survival was inactive: 91%. In the case of `CN(C)c1ccc(CNc2nc(-c3ccco3)nn2C(=O)c2cccc([N+](=O)[O-])c2)cc1`, the survival is reported as inactive: 66%. `COC(=O)c1cc(Cl)c(NC(=O)/C=C/c2ccc(Cl)cc2Cl)cc1OC` was tested, and the survival was inactive: 50%. For `CCOC(=O)c1ccc(NC2=CC(c3ccc(Br)cc3)N(c3ccc(C(=O)OCC)cc3)C2=O)cc1` (stereo not drawn), the survival was inactive: 128%. `Cc1cccc(Oc2nc3c(C)cccn3c(=O)c2/C=C(\C#N)c2nc3ccccc3s2)c1` was tested, and the survival was inactive: 69%. For `COc1cccc(Cc2nc3ccccc3nc2SCC(=O)N2CCc3ccccc32)c1`, the survival was inactive: 93%. For `O=S(=O)(c1ccccc1)c1nc(-c2cccc(Cl)c2)oc1NCc1ccccc1`, the survival was inactive: 83%. For `COCCNC(=O)CSc1nnc(-c2ccc(OC)c(OC)c2)c(-c2ccc(OC)c(OC)c2)n1`, the survival was inactive: 87%. With `CCOc1ccc(N2CC(c3nc4ccccc4n3CCCOc3ccc(OC)cc3)CC2=O)cc1` (stereo not drawn) the survival was active: 44%. `Cc1ccc2c(c1)c(=O)c1ccccc1n2CCCC(=O)Nc1ccc(F)cc1F` was tested, and the survival was active: 49%. `O=C(NC1CC(=O)N(c2ccccc2)C1)C1CCCC1` (stereo not drawn) was tested, and the survival was inactive: 128%. For `CC(Sc1ncc(S(=O)(=O)c2ccc(C(C)C)cc2)c(N)n1)C(=O)Nc1ccccc1` (stereo not drawn), the survival was inactive: 60%. `COc1ccc(NC(=O)Cn2c(=O)n(-c3ccc(Cl)cc3)c(=O)c3c(C)c(C(=O)N(C)C)sc32)cc1Cl` was tested, and the survival was inactive: 69%. With `CCOC(=O)c1cc(-c2ccc(F)cc2)n(CCC(=O)Nc2ccccc2OC)c1C` the survival was inactive: 101%. In the case of `Cc1ccc(CSc2nc(=O)c3c(C)cc(C)nc3n2C2CC2)cc1`, the survival is reported as inactive: 116%. `COc1ccccc1-c1c(C)nn2c(N3CCN(c4ccc(Cl)cc4)CC3)cc(C)nc12` was tested, and the survival was inactive: 83%. In the case of `CCCCOc1ccc(S(=O)(=O)Nc2cccc(-c3ccc(N4CCOCC4)nn3)c2)cc1`, the survival is reported as inactive: 83%. With `CC(Sc1nc(-c2ccccc2)c(C#N)c(=O)[nH]1)C(=O)Nc1ccc(F)cc1` (stereo not drawn) the survival was inactive: 70%. In the case of `CCOC(=O)c1ccc(Nc2nc(C)cc(C)n2)cc1`, the survival is reported as inactive: 85%. With `COc1ccc(N(CC(=O)N2CCN(c3cc(C)ccc3C)CC2)S(=O)(=O)c2c(C)noc2C)cc1` the survival was inactive: 70%. `CCN(CC)C(=O)Cn1c(C)c(C#N)c2ccccc21` was tested, and the survival was inactive: 96%. `COc1ccc(-c2nc(CCNC(=O)c3cc(OC)c(OC)c(OC)c3)cs2)cc1` was tested, and the survival was inactive: 124%. `COc1ccc(CNC(=O)Cc2c(C)c3c(cc(C)c4c(C)coc43)oc2=O)cc1` was tested, and the survival was inactive: 90%. `CCCN1CCN(CC2=C(C(=O)OCC)C(c3ccc(Cl)cc3)NC(=O)N2)CC1` (stereo not drawn) was tested, and the survival was inactive: 93%. `CC(C)c1ccc(C2c3c(-c4ccccc4O)n[nH]c3C(=O)N2CCc2ccccc2)cc1` (stereo not drawn) was tested, and the survival was inactive: 50%. `Cc1ccc(-n2ncc3c(NNC(=O)c4ccccc4C)ncnc32)cc1` was tested, and the survival was inactive: 98%. For `COc1ccc(-c2c(C)nn3c(N4CCC(C(=O)NCCC(C)C)CC4)cc(C)nc23)cc1OC`, the survival was inactive: 94%. In the case of `CC(C)CCn1c(SCc2ccc(F)cc2Cl)nc2ccsc2c1=O`, the survival is reported as inactive: 89%. `CC1=C(C(=O)Nc2ccccc2)C(c2ccc(C(=O)O)cc2)n2nc(SCC(=O)c3ccc(C)cc3)nc2N1` (stereo not drawn) was tested, and the survival was inactive: 82%. `CCN(CC)CCn1c(=N)n(CC(O)COc2ccccc2C)c2ccccc21` (stereo not drawn) was tested, and the survival was inactive: 80%. In the case of `Cc1ccc(Cn2c(=O)c3c(nc4n3CCN4c3cc(C)cc(C)c3)n(C)c2=O)cc1`, the survival is reported as inactive: 73%. `C=CCn1c(C(C)NC(=O)c2ccccc2Cl)n[nH]c1=S` (stereo not drawn) was tested, and the survival was inactive: 76%. With `CCc1ccc(-c2[nH]c3c(c2-c2c(-n4cccc4)n(C)c(=O)n(C)c2=O)c(=O)n(C)c(=O)n3C)cc1` the survival was inactive: 105%. `COC(=O)C1CCN(S(C)(=O)=O)CC1` was tested, and the survival was inactive: 81%. For `COc1cccc(NC(=O)Cn2c(=O)n(CCCC(=O)NCc3ccc4c(c3)OCO4)c(=O)c3ccccc32)c1`, the survival was inactive: 115%. In the case of `O=S(=O)(Cc1ccccc1)N1CCC(c2nc(-c3cccs3)no2)CC1`, the survival is reported as inactive: 75%. For `c1ccc(CCCN2CCN(C3CCCC3)CC2)cc1`, the survival was inactive: 95%. For `CCOC(=O)N1CCc2c(sc(NCc3ccc(OC)c(Br)c3)c2C(=O)Nc2cc(OC)ccc2OC)C1`, the survival was inactive: 80%. With `CCOC(=O)c1ccccc1NC(=O)N(Cc1ccc(C)cc1)Cc1cccn1-c1nnc(N2CCCC2=O)s1` the survival was inactive: 118%. `COC(=O)c1c(NC(=O)c2ccc(S(=O)(=O)N3CCCCC3C)cc2)sc2c1CCN(C(C)C)C2` (stereo not drawn) was tested, and the survival was inactive: 124%. With `Cc1ccccc1-c1noc(CSc2nnc(Cc3ccccc3)n2-c2ccc(F)cc2)n1` the survival was inactive: 52%. `COc1ccc(-c2noc(CSc3nnc(-c4ccncc4)n3-c3ccccc3)n2)cc1` was tested, and the survival was inactive: 70%. With `CCC(C)n1c(=N)c(S(=O)(=O)c2ccc(C)cc2)cc2c(=O)n3cc(C)ccc3nc21` (stereo not drawn) the survival was inactive: 75%. For `COc1cccc(C2=NN(S(C)(=O)=O)C(c3cn(-c4ccccc4)nc3-c3cccs3)C2)c1` (stereo not drawn), the survival was inactive: 168%. With `COc1ccc(CNC(=O)CN(C)c2nn3c(=O)cc(C)nc3s2)cc1` the survival was inactive: 94%. With `CC(=O)c1ccc(N2CCN(C(=O)CS(=O)(=O)c3cccc4nsnc34)CC2)cc1` the survival was inactive: 81%. For `COc1ccccc1NC(=O)N1CC=C(c2c[nH]c3ccccc23)CC1`, the survival was active: 42%. With `Cc1cc(=O)[nH]c2nnc(SCCC(C)C)n12` the survival was inactive: 73%. `COc1ccc(CCNC(=O)CSc2nnc(-c3ccc(C)cc3)c(-c3ccc(C)cc3)n2)cc1OC` was tested, and the survival was inactive: 94%. `CCCCOc1cccc(C(=O)N(Cc2ccc(Cl)cc2)C2CCS(=O)(=O)C2)c1` (stereo not drawn) was tested, and the survival was inactive: 54%. In the case of `Cc1ccc(-c2noc(-c3ccc(NCC4CCCO4)c([N+](=O)[O-])c3)n2)cc1` (stereo not drawn), the survival is reported as inactive: 74%. In the case of `COc1cc(C=C(C#N)C#N)ccc1OC(=O)c1ccco1`, the survival is reported as inactive: 89%. For `CS(=O)(=O)n1nc(-c2ccco2)nc1N`, the survival was inactive: 91%. With `CCNC(=S)N1CCN(CC)CC1` the survival was inactive: 75%. In the case of `Cn1ccc2cc(S(=O)(=O)N3CCCN(C(=O)Nc4ccc(Br)cc4)CC3)ccc21`, the survival is reported as inactive: 73%. In the case of `COCc1[nH]nc2c1C(c1ccccc1C(F)(F)F)C(C#N)=C(N)O2` (stereo not drawn), the survival is reported as inactive: 76%. With `CCOc1ccccc1C(=O)N(Cc1ccc(N(C)C)cc1)Cc1ccco1` the survival was inactive: 72%. For `COc1cc(C(=O)Nc2ccccc2OCc2cc(=O)n3cc(C)sc3n2)cc(OC)c1OC`, the survival was inactive: 135%. With `Nc1nc(N)nc(COc2ccccc2)n1` the survival was inactive: 102%. For `Cc1ccc(-c2nnc(Nc3ccc(Cl)cc3)c3ccccc23)cc1S(=O)(=O)NCC1CCCO1` (stereo not drawn), the survival was inactive: 95%. For `O=C(c1cccc(Cl)c1)N1CCC(c2nc3c(nnn3Cc3ccc(F)cc3F)c(=O)[nH]2)CC1`, the survival was active: 11%. For `COc1ccc(C(=O)c2cn(Cc3ccccc3F)c3ccc(F)cc3c2=O)cc1`, the survival was inactive: 76%. With `CC1(C)CCCC2(C)C1CCC(C)(O)C2CCO` (stereo not drawn) the survival was inactive: 71%. With `Cc1cccc(NC(=O)c2oc3ccc(S(=O)(=O)N4CCCCC4)cc3c2C)c1C` the survival was inactive: 71%. In the case of `COc1ccc(-c2[nH]c(-c3ccc(OC)c(OC)c3)nc2SCC(=O)Nc2ccccc2)cc1`, the survival is reported as inactive: 56%. For `COc1cc(OC)c(NC(=O)N2CCOc3ccc(C)cc32)cc1Cl`, the survival was inactive: 71%. With `Cc1nn(-c2ccccc2)c2sc(C(=O)NN=C3CCCC3)cc12` the survival was inactive: 109%. With `O=c1c2c(n3nnnc3n1-c1ccccc1)-c1ccccc1CC21CCCC1` the survival was inactive: 109%.
